Reference: paper PMC4336329 (PLoS ONE, 2015)
In all, about 310,000 compounds went through this assay and about 14,000 (4.5%) showed an effect of 50% or more. The effect is printed as a negative number. Some of the results follow.

What follows are molecules tested against human ether-à-go-go-related gene (hERG) potassium channel (human, UniProt Q12809) (assay: primary screen, population patch clamp on CHO cells stably expressing hERG).
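Also: peak tail current of the secondary pulse compared with the same well before compound.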

Chain of human ether-à-go-go-related gene (hERG) potassium channel (Q12809 whole entry, looked up): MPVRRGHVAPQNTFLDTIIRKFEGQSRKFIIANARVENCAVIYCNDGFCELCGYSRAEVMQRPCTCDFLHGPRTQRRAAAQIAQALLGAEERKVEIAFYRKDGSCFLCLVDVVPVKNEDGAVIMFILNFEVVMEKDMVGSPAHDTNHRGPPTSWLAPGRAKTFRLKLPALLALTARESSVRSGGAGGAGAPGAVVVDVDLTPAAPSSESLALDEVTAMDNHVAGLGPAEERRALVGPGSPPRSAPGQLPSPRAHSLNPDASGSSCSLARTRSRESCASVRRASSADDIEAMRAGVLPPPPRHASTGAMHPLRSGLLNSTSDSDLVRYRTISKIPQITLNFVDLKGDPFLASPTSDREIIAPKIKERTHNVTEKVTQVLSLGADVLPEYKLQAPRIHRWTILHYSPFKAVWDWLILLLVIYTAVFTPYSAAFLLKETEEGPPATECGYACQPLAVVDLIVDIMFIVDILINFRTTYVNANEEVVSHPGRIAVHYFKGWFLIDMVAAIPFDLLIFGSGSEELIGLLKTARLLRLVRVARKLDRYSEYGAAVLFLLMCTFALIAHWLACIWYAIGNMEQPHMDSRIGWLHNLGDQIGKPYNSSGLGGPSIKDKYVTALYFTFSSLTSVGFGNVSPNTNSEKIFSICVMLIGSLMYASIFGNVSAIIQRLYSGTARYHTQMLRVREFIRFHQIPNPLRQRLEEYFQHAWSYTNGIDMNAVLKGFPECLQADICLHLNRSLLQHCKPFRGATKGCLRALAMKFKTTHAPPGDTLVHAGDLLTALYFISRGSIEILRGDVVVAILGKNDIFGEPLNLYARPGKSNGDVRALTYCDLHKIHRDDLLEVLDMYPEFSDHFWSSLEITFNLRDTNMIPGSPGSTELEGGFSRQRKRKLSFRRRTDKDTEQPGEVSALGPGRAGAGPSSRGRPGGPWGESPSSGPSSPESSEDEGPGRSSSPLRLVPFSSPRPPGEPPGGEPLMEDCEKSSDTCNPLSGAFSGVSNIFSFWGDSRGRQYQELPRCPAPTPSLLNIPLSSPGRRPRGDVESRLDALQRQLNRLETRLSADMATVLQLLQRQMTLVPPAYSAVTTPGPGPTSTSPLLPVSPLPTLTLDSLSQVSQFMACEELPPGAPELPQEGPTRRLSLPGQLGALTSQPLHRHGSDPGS

| Structure (SMILES) | hERG current change (%, negative = inhibition) at 10uM [%] |
| --- | --- |
| CCn1c(=S)sc2c(=O)n(CC(=O)Nc3cccc(Cl)c3)c(C)nc21 | 6.27 |
| COc1ccc(S(=O)(=O)N2CCCCCC2)cc1NC(=O)CN(C)Cc1ccc2c(c1)OCO2 | -21.6 |
| Cc1ccc(NC2CC(=O)N(c3cccc([N+](=O)[O-])c3)C2=O)cc1 (stereo not drawn) | 9.73 |
| CC(C)CN(C(=O)CSc1nn(-c2ccc(Cl)cc2)c(=S)s1)C1CCS(=O)(=O)C1 (stereo not drawn) | -20.1 |
| O=C(CS(=O)(=O)Cc1ccccc1)Nc1ccc2c(c1)OCO2 | 9.72 |
| O=C(NCCc1ccccc1)c1cc(-c2ccccc2)c(N2CCOCC2)s1 | 3.07 |
| CC(C)(C)C(=O)Nc1cccc(-c2nc3ccccc3c(=O)o2)c1 | -24.3 |
| N/C(Cc1cccc2ccccc12)=N\OC(=O)c1ccccc1F | 13.4 |
| CC(C)(CNC(=O)c1ccc(Br)o1)N1CCOCC1 | 6.38 |
| COc1ccc(C(=O)Cc2nnc(C)s2)cc1 | 8.47 |
| COC(=O)c1cc2nc(-c3ccc(C)cc3)cc(C(F)(F)F)n2n1 | -3.89 |
| CC(=O)N(C)c1ccc(NC(=O)Nc2ccc(C)cc2)cc1 | 24.9 |
| Cc1cc(=O)oc2cc(OC(C)C(=O)NC3CCCC3)ccc12 (stereo not drawn) | -33.4 |
| Cc1c(C(=O)N(C)Cc2ccc(OC(F)F)cc2)oc2ccccc12 | -69.9 |
| CCC(=O)N(Cc1cc2c(C)ccc(C)c2[nH]c1=O)C1CCCCC1 | -20.8 |
| CCOc1ccc(C2OC34CCCCC3C(C#N)(C#N)C2(C#N)C(=N)O4)cc1OC (stereo not drawn) | 6.43 |
| COc1cc(OC)cc(C(=O)NC(=S)Nc2nc(-c3cc4ccccc4o3)cs2)c1 | 3.05 |
| O=C(NCCSc1ccc(Br)cc1)c1ccc2nc[nH]c2c1 | -13.7 |
| COc1ccc(/C(C)=N/N=C(\C)c2ccc(OC)cc2OC)c(OC)c1 | -8.16 |
| COc1ccc2c(c1)OC[C@H]1[C@H]2N2C(=O)CN(Cc3ccc(C)cc3)C(=O)[C@@]2(C)[C@H]1c1ccccc1 | 17.9 |
| O=C(Nc1cccnc1)C1CC(c2ccc(Cl)c(Cl)c2)=NO1 (stereo not drawn) | -18.7 |

| Structure (SMILES) | hERG current change (%, negative = inhibition) at 10uM [%] |
| --- | --- |
| Cc1cccc(N2C(=O)C3C4CC(C(Br)C4Br)C3C2=O)n1 (stereo not drawn) | 15.3 |
| COC(=O)c1ccc(Oc2cc(C)nc(SC)n2)cc1 | 4.12 |
| COc1ccc(NC(=O)Cc2nnc(SCC(=O)Nc3ccccc3)n2C)cc1 | 20.6 |
| COC(=O)N/N=C/c1cn(Cc2ccccc2F)c2ccccc12 | 6.63 |
| Cc1ccc(C)c(NC(=O)CN(C)C(=O)COc2ncnc3sccc23)c1 | -6.59 |
| O=C(NCc1ccc(Cl)cc1)c1cc2ccccn2n1 | -28.8 |
| CC(C)n1nc(C(=O)OCC(=O)N2CC(=O)Nc3ccccc32)c2ccccc2c1=O | -44.7 |
| COc1ccc(Cn2nnnc2C(c2cc3cccc(C)c3[nH]c2=O)N2CCN(C)CC2)cc1 (stereo not drawn) | 29.6 |
| Cc1cc(C)c(NC(=O)COC(=O)C2CCCCC2)c(C)c1 | 4.87 |
| O=C(Nc1ccc2c(c1)OCO2)C(=O)c1c[nH]c2ccccc12 | 22.3 |
| C=Cc1c(C)c2cc3[nH]c(cc4nc(cc5nc(cc1[nH]2)C(C)=C5CCC(=O)O)C(CCC(=O)O)=C4C)c(C)c3C=C | 17.7 |
| CC(NC(N)=O)C12CC3CC(CC(C3)C1)C2 (stereo not drawn) | 14.2 |
| CCN1CCN(S(=O)(=O)c2cc(OC)ccc2OC)CC1 | 18.4 |
| O=C(c1ccccc1)c1c[nH]c(C(=O)NCCCN2CCOCC2)c1 | -19.4 |
| CC(=O)NC(=S)Nc1ccc(NC(=S)NC(=O)/C=C/c2ccco2)cc1 | 16.4 |
| COc1ccc(-n2c(SCC(=O)Nc3ccc(C(N)=O)cc3)nc3c([nH]c4ccccc43)c2=O)cc1OC | 20.1 |
| Cn1nc(-c2ccc(Cl)cc2)cc1NC(=O)Nc1ccccc1 | 5.81 |
| Cc1nn(-c2ccc(Cl)cc2)c(NC(=O)C(C)C)c(-c2ccccc2)c1=O | 10.5 |
| Cc1[nH]c(C)c2c(=O)[nH]ncc12 | 16.6 |
| O=C(N/N=C/c1ccc(N2CCOCC2)cc1)c1ccccc1NS(=O)(=O)c1cccs1 | 4.46 |
| O=C(N/N=C/c1ccc(F)cc1)c1sccc1OCc1ccc(F)cc1 | -3.12 |
